Results on 144 sequences are retold here after the supplement of paper PMC3724861.

The other results are listed elsewhere or left out.

The subject of this test is T1, Caupolican (Caup) homeodomain DNA-binding domain.
T1 sequence: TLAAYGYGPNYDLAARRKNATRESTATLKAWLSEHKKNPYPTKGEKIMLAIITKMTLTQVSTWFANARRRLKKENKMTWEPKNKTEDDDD
The test is described as follows: PBM E-score (8-mer, recovered from the published 9-mer minima) (E-score (dimensionless, -0.5 to 0.5)); Drosophila protein; higher = stronger relative binding preference, active = 0.31 or more. An outline of the steps: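 An enrichment score, with higher meaning stronger, expresses relative binding preference for each short DNA word. The protein used was Caup's homeodomain DNA-binding domain (residues 214-303), produced by in vitro transcription and translation and tested at 100 nM on custom-designed protein binding microarrays. The 8-mer values were recovered from published 9-mer scores, each equal to the lower of its two constituent 8-mer scores.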
For the sequence CGGTTATA, the “PBM E-score” value was inactive: 0.0519.

CTGCCCGC: the “PBM E-score” value was inactive: -0.16.

With GCACGGGA, the “PBM E-score” value was inactive: -0.0997.

For the sequence GACCTTTA, the “PBM E-score” value was inactive: -0.0271.

Consider CGAATCCA, for which the “PBM E-score” value is inactive: 0.0564.

Turning to ATTTAAGC, the “PBM E-score” value was at least 0.0678.

For GTGCATTA, the “PBM E-score” value is inactive: 0.0902.

As to GCAGCCTA, the “PBM E-score” value is inactive: -0.131.

Turning to TGTATACA, the “PBM E-score” value is active: ≥ 0.356.

Consider AAACATTG, for which the “PBM E-score” value was inactive: 0.183.

For AGTCGAGC, the “PBM E-score” value is inactive: -0.101.

As for AGTAATTC, the “PBM E-score” value was inactive: 0.122.

Regarding AGAGAATA, the “PBM E-score” value is inactive: 0.0241.

Turning to GGCACCTA, the “PBM E-score” value was inactive: -0.136.

As to AGCATCTA, the “PBM E-score” value is inactive: 0.0509.

Consider CACATCGG, for which the “PBM E-score” value is inactive: 0.0641.

On to AACATCGG, for which the “PBM E-score” value is inactive: 0.166.

Turning to AATAAGGG, the “PBM E-score” value was inactive: 0.00741.

On to CTATCCAA, for which the “PBM E-score” value was inactive: 0.0902.

ACACCCAG: the “PBM E-score” value was inactive: 0.0381.

Consider TCCCTTCA, for which the “PBM E-score” value is at least -0.0331.

As to ATAGAGCA, the “PBM E-score” value is at least 0.0478.

GTCAGGTA: the “PBM E-score” value was inactive: 0.116.

Take GTATGTGA: the “PBM E-score” value is inactive: 0.193.

As for CGTAAACA, the “PBM E-score” value was inactive: 0.192.

In the case of CTGTCCTC, the “PBM E-score” value was inactive: -0.0392.

GACGTAGC: the “PBM E-score” value is inactive: -0.0265.

ACGCTACG: the “PBM E-score” value is inactive: -0.0675.

CATATGTA: the “PBM E-score” value is active: 0.334.

Turning to ATATTCTA, the “PBM E-score” value is inactive: 0.182.

For TAGTGATA, the “PBM E-score” value is at least 0.138.

Take CTACTTCC: the “PBM E-score” value is inactive: 0.0612.

AAATGGGC: the “PBM E-score” value was inactive: -0.128.

Consider CGAGGTAC, for which the “PBM E-score” value was inactive: 0.104.

In the case of GGACCAAC, the “PBM E-score” value was inactive: -0.0642.

With TAGCTTCA, the “PBM E-score” value is inactive: -0.0401.

Turning to CGACATGA, the “PBM E-score” value was active: 0.395.

As to AGCTGACG, the “PBM E-score” value is inactive: -0.0449.

Turning to CTTCATTA, the “PBM E-score” value was inactive: 0.00457.

As to GGTGATGA, the “PBM E-score” value was inactive: 0.0207.

For the sequence CAACACCA, the “PBM E-score” value is inactive: 0.179.

With TACGAGCA, the “PBM E-score” value is inactive: 0.142.

In the case of CGCTACCA, the “PBM E-score” value was inactive: -0.0582.

On to AAACGAAC, for which the “PBM E-score” value was inactive: 0.101.

In the case of GGAGATGA, the “PBM E-score” value was inactive: 0.00358.

In the case of ACAAACAC, the “PBM E-score” value is inactive: 0.301.

For GTTGCTGA, the “PBM E-score” value was inactive: 0.0952.

With CCTTTTCC, the “PBM E-score” value is inactive: -0.124.

With AGGGATAC, the “PBM E-score” value was inactive: 0.0399.

Take AACCAGCG: the “PBM E-score” value is inactive: -0.0304.

As to CATCAACC, the “PBM E-score” value is inactive: 0.113.

As to CATTTTGC, the “PBM E-score” value was inactive: 0.0868.

As for GGTCAACA, the “PBM E-score” value is inactive: 0.159.

Regarding GTTCATGA, the “PBM E-score” value was inactive: 0.115.

For CTCAATAC, the “PBM E-score” value is inactive: 0.0995.

As to AGAGATGA, the “PBM E-score” value was inactive: -0.00602.

On to AGCAGAAA, for which the “PBM E-score” value was inactive: -0.00844.

As for ATGCTCAG, the “PBM E-score” value is inactive: 0.0153.

Regarding CATTAGCG, the “PBM E-score” value is inactive: -0.0517.

With AGCGCATG, the “PBM E-score” value was inactive: -0.0275.

As for TAGTCCCA, the “PBM E-score” value is inactive: -0.0546.

For the sequence ACTAGAAA, the “PBM E-score” value was inactive: 0.0206.

On to AACCCAAC, for which the “PBM E-score” value was inactive: 0.0724.

GATTCCTA: the “PBM E-score” value is inactive: -0.0121.

As for ACTTTGAC, the “PBM E-score” value is inactive: 0.0611.

For the sequence ATGAAGCA, the “PBM E-score” value is inactive: 0.0527.

In the case of CATCCGCG, the “PBM E-score” value is inactive: -0.013.

With ATAGCTAT, the “PBM E-score” value was inactive: 0.0666.

As to AATGACGT, the “PBM E-score” value was inactive: 0.112.

Turning to AAGTACTA, the “PBM E-score” value is inactive: 0.197.

Consider AAGTGGCC, for which the “PBM E-score” value is inactive: -0.186.

On to ATTGCGTA, for which the “PBM E-score” value is inactive: 0.0504.

On to TGATCCAA, for which the “PBM E-score” value was inactive: 0.0971.

Take TAATATGA: the “PBM E-score” value is inactive: 0.182.

For the sequence CGAGGGTA, the “PBM E-score” value was inactive: -0.154.

As to ACTATACA, the “PBM E-score” value is inactive: 0.245.

Consider CTTGAAGA, for which the “PBM E-score” value is inactive: -0.0903.

ACAGCTTA: the “PBM E-score” value was inactive: 0.0802.

Regarding ATAAGGAT, the “PBM E-score” value was at least 0.117.

For CGTAATGA, the “PBM E-score” value was inactive: 0.094.

On to CGGCATCA, for which the “PBM E-score” value was at least -0.0217.

GCTGGTAA: the “PBM E-score” value was inactive: 0.00432.

Turning to ATGCTAGG, the “PBM E-score” value is inactive: -0.0403.

In the case of CGCTATGA, the “PBM E-score” value was inactive: 0.0359.

AGTCGGAT: the “PBM E-score” value was inactive: 0.00516.

On to AGTAGTTA, for which the “PBM E-score” value is inactive: 0.169.

As for GTAAAACA, the “PBM E-score” value is inactive: 0.174.

Turning to CTCGAGAA, the “PBM E-score” value was inactive: -0.0341.

As to CGAGCCCA, the “PBM E-score” value is inactive: -0.102.

ACCGCTAC: the “PBM E-score” value was inactive: -0.121.

For the sequence AGTCGCCC, the “PBM E-score” value is inactive: -0.191.

For the sequence CGGCGTCC, the “PBM E-score” value was inactive: -0.152.

For AGAGGTAG, the “PBM E-score” value was inactive: -0.0483.

For the sequence TATAAAAA, the “PBM E-score” value is inactive: 0.0823.

In the case of CAATGAGC, the “PBM E-score” value was inactive: -0.0635.

Consider AAGTCATT, for which the “PBM E-score” value was inactive: 0.0183.

Regarding CATGAGCA, the “PBM E-score” value is inactive: 0.0293.

As to AAGTCTCC, the “PBM E-score” value was inactive: -0.0551.

CAATTGTG: the “PBM E-score” value is inactive: 0.0958.

Take ATACCGTC: the “PBM E-score” value was inactive: -0.0836.

On to AAGCCTAA, for which the “PBM E-score” value was inactive: -0.0994.

Take CTAGACTC: the “PBM E-score” value was inactive: -0.123.

Consider ATGCATGA, for which the “PBM E-score” value was inactive: 0.122.

With CGAGTCAA, the “PBM E-score” value is inactive: 0.0846.

Turning to CGGCGCCG, the “PBM E-score” value is inactive: -0.183.

Consider TAAACTCA, for which the “PBM E-score” value is inactive: 0.0783.

With AGCCACAC, the “PBM E-score” value is at least -0.0162.

Take AAACTCAT: the “PBM E-score” value is at least 0.127.

For CGCAGATC, the “PBM E-score” value was inactive: -0.116.

As for CTGATACA, the “PBM E-score” value was inactive: 0.188.

In the case of CGACTACG, the “PBM E-score” value is inactive: -0.019.

Turning to AACTCTCC, the “PBM E-score” value is inactive: -0.0907.

Take AGACATGC: the “PBM E-score” value was inactive: 0.303.

In the case of AAGGGGTA, the “PBM E-score” value is inactive: -0.149.

Turning to AACACCGA, the “PBM E-score” value is inactive: 0.161.

With CAGCTGTC, the “PBM E-score” value is inactive: -0.00715.

For AGGTGCAT, the “PBM E-score” value was inactive: 0.0539.

Turning to GCTACCAC, the “PBM E-score” value was inactive: -0.0253.

Consider TGCGTGAA, for which the “PBM E-score” value is inactive: 0.0802.

With CGAAACAG, the “PBM E-score” value is inactive: 0.0527.

For the sequence GCCTACAC, the “PBM E-score” value is inactive: 0.0771.

As to ATTCGTGG, the “PBM E-score” value is inactive: 0.0194.

In the case of CTGCGGGA, the “PBM E-score” value is inactive: -0.245.

Take GCATCGAA: the “PBM E-score” value is inactive: -0.0547.

As for AATCTACT, the “PBM E-score” value was inactive: 0.0171.

On to AGCTCGCC, for which the “PBM E-score” value was inactive: -0.197.

In the case of GTCTTGCA, the “PBM E-score” value is inactive: 0.0651.

As to GCATCACA, the “PBM E-score” value is inactive: 0.138.

For ACGTGAGC, the “PBM E-score” value is inactive: -0.0733.

As to AGACCGTG, the “PBM E-score” value was inactive: 0.0373.

As to CCGACCGC, the “PBM E-score” value is inactive: -0.26.

For TAGGACGA, the “PBM E-score” value was inactive: 0.0114.

As to GAATCCGC, the “PBM E-score” value is inactive: -0.165.

Take TAACATCA: the “PBM E-score” value is inactive: 0.305.

In the case of ACCCAGGG, the “PBM E-score” value was inactive: -0.145.

Turning to ACGCGTCA, the “PBM E-score” value is at least 0.0959.

In the case of GTCTGACA, the “PBM E-score” value was inactive: 0.197.

Consider ACTACCTC, for which the “PBM E-score” value was inactive: 0.0403.

As to GTAAGCTA, the “PBM E-score” value is inactive: 0.0865.

Consider ACTTCTGA, for which the “PBM E-score” value is inactive: 0.0332.

Take ATAAACCC: the “PBM E-score” value was inactive: 0.0213.

Regarding CAAACAAC, the “PBM E-score” value is inactive: 0.293.

As to GGGGATGA, the “PBM E-score” value is inactive: -0.113.

In the case of AAGTGAGC, the “PBM E-score” value was inactive: -0.0682.
